Source: paper PMC4214795
These are yes or no findings as the source states them, for the method shown. For some of these results: In cells and extracts the contact can be indirect. Tags and fused reporters may be left off the sequences shown. Some results given as binding are weak or reduced against the parent protein; the word gives no strength.

Amino acid sequences for entries named in this document (tags omitted).
UniProt P53350: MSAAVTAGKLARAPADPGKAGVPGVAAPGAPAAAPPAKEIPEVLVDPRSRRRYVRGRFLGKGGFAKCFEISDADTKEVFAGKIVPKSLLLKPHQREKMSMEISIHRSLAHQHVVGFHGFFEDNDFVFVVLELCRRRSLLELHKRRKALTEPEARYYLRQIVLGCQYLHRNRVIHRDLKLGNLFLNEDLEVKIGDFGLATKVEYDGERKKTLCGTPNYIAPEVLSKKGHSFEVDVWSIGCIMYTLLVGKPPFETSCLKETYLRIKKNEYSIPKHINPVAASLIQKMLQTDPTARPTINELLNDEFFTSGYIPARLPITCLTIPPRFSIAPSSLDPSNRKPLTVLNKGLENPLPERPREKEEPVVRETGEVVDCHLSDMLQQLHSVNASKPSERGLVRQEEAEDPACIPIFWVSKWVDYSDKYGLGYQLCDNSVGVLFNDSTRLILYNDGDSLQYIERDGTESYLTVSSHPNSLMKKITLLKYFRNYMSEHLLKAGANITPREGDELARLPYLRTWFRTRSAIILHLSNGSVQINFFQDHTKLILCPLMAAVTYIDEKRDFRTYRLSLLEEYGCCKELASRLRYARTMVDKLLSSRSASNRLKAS

Tests used:
[1] = target: T1, Clp1aa.1-371, GAL4 DNA binding domain fusion (S. pombe) (UniProt Q9P7H1); assay: two-hybrid; bait Clp1p fused to GAL4 DNA binding domain, prey ESCRT proteins fused to GAL4 transcription activation domain; budding yeast with GAL4-galactosidase readout; X-gal overlay; interaction read from the lack of transcriptional readout of the auto-activating bait Clp1aa.1-371
T1 sequence: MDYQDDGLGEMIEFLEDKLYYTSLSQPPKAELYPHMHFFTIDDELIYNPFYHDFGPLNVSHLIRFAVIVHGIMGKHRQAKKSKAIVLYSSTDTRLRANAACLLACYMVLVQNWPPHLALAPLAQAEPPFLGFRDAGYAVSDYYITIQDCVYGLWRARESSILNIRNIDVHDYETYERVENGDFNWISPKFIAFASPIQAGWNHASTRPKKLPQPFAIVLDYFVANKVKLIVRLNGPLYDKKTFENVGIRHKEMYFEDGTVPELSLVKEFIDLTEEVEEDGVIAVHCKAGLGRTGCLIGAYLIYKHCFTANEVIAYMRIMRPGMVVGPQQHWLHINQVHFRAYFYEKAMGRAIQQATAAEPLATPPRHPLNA

[2] = target: T2, Ark1p (wild-type), LexA DNA binding domain fusion (S. pombe) (UniProt O59790); assay: two-hybrid; bait fused to LexA DNA binding domain (Plo1p or Ark1p), prey ESCRT proteins fused to GAL4 transcription activation domain; budding yeast with LEXA-galactosidase readout; three days on selective medium, X-gal overlay; qualitative
T2 sequence: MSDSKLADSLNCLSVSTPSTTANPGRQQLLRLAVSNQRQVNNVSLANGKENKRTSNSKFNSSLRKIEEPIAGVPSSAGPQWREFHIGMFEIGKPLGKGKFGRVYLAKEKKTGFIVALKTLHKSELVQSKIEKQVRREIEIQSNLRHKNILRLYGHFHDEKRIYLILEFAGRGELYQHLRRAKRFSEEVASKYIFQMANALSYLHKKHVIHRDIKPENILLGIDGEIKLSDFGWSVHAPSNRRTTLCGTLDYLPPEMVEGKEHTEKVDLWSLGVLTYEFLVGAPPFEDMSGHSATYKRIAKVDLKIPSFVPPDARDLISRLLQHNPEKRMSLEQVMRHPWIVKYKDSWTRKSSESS

[3] = target: T3, Plo1p (wild-type), LexA DNA binding domain fusion (S. pombe) (UniProt P50528); assay: as above
T3 sequence: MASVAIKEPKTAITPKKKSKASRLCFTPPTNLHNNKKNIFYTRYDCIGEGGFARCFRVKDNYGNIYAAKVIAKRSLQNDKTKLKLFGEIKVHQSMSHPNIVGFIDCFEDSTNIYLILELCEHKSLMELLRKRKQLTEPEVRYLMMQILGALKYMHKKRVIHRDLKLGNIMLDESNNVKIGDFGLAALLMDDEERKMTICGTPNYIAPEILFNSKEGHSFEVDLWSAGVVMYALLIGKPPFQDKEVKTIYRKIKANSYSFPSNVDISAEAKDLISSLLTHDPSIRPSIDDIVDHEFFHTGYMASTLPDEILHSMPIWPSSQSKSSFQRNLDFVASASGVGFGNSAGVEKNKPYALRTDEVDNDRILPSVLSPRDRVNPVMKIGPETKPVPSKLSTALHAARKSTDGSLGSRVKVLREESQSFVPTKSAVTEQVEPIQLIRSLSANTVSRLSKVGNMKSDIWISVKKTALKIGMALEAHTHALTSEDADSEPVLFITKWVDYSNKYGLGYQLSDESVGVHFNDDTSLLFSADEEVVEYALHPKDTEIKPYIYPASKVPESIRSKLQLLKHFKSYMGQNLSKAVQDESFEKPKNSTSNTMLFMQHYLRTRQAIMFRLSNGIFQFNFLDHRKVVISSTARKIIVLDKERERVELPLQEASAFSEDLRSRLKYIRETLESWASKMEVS

[4] = target: Human polo-like kinase 1 (Plk1) (human) (UniProt P53350); assay: co-IP; HEK293 cells transfected with tagged ESCRT proteins; 1 mg lysate with 12.8 ug anti-Plk1 antibody overnight at 4 C, Protein A sepharose; washes with 100 mM KCl and with 250 mM NaCl, 1% Triton X-100; immunoblot with anti-GFP or anti-myc

B1: Vps20p (ESCRT-III), GAL4 transcription activation domain fusion (protein, UniProt O94318 1-226)
chain: MGVNSSKINDKDRSILSIKEQRDKLLRYSKRLEKIEQLEIDIARKCLRDSDKRGALRALKAKKLYSGLITQTYGQLGNIEQLLSTIEFTLIQKDVMFGLQEGTNLIRQLQADMPLERVGRICNDRDEAMSYVDEVNDMLQGRMSRDQEDEIQEELDSLIREQEDEKVKDLEKPGFTPSTGVDVLPSVPLKNAIPSLDESFPKAASVSNTSSAVVIDEELRKDPVLG
binding [1]: no binding
binding [2]: no binding
binding [3]: binds

B2: FIP3-GFP (protein, UniProt O75154 1-756)
chain: MASAPPASPPGSEPPGPDPEPGGPDGPGAAQLAPGPAELRLGAPVGGPDPQSPGLDEPAPGAAADGGARWSAGPAPGLEGGPRDPGPSAPPPRSGPRGQLASPDAPGPGPRSEAPLPELDPLFSWTEEPEECGPASCPESAPFRLQGSSSSHRARGEVDVFSPFPAPTAGELALEQGPGSPPQPSDLSQTHPLPSEPVGSQEDGPRLRAVFDALDGDGDGFVRIEDFIQFATVYGAEQVKDLTKYLDPSGLGVISFEDFYQGITAIRNGDPDGQCYGGVASAQDEEPLACPDEFDDFVTYEANEVTDSAYMGSESTYSECETFTDEDTSTLVHPELQPEGDADSAGGSAVPSECLDAMEEPDHGALLLLPGRPHPHGQSVITVIGGEEHFEDYGEGSEAELSPETLCNGQLGCSDPAFLTPSPTKRLSSKKVARYLHQSGALTMEALEDPSPELMEGPEEDIADKVVFLERRVLELEKDTAATGEQHSRLRQENLQLVHRANALEEQLKEQELRACEMVLEETRRQKELLCKMEREKSIEIENLQTRLQQLDEENSELRSCTPCLKANIERLEEEKQKLLDEIESLTLRLSEEQENKRRMGDRLSHERHQFQRDKEATQELIEDLRKQLEHLQLLKLEAEQRRGRSSSMGLQEYHSRARESELEQEVRRLKQDNRNLKEQNEELNGQIITLSIQGAKSLFSTAFSESLAAEISSVSRDELMEAIQKQEEINFRLQDYIDRIIVAIMETNPSILEVK
binding [4]: no binding
